We go through 14 molecules from paper PMC12136788.

T1: UNK ZnF1-3 (human, UniProt Q9C0B0 31-174)
T1 sequence: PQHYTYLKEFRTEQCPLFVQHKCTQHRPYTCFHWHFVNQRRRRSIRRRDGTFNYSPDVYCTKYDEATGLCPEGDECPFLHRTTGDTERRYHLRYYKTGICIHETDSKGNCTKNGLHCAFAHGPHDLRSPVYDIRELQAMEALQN

B1: chr4:48381769:48381770:+_ENSG00000109171_ENST00000512093|hu_hu|motif|central (ssRNA)
RNA: GGGAGUUCUACAGUCCGACGAUCCUUAUAAUUGGAUCCAAUUGAAUCUUCAUCUAAUUCUGAAGCACUUAACUCACGGUCGGUAGAGGACUGAGGACUGAGUGGAGGAUUUCUGUCUGAGCUUUUCAAGUUACCUGAAUUUCCCAACAGAGGAUUGAGCAUCA
B2: chr3:20017139:20017140:+_ENSG00000144566_ENST00000273047|hu_hu|FALSE|FALSE (ssRNA)
RNA: GGGAGUUCUACAGUCCGACGAUCGAUAUCAUAUACAACUAUGGCUGCUUGUGCUCCUCUGUAGUACAUUGGUGCUAGGCUAUGGUAUCGUUCUUGACCAGCUGUAUCCCAUAUUUCAAACUUUACUGUAGUGUCAUCAAGACACAACAGAGGAUUGAGCAUCA
B3: chr11:87794976:87794977:-_ENSMUSG00000020483_ENSMUST00000020775|perfect_dup|FALSE|FALSE (ssRNA)
RNA: GGGAGUUCUACAGUCCGACGAUCGCAACGCCGCCUGCUUGCCAUCGCUGCCGCCGCCACUGACACCUUCACCAUGGCCACCUAGCCUGACUUGAAGAGGAGGAUUGCAACUUGACCCAAGUAAAAAUAGAUGAAGUGCUUUGUCAACAGAGGAUUGAGCAUCA
B4: chr14:78894897:78894898:-_ENSMUSG00000022016_ENSMUST00000123853|mus_mus|FALSE|FALSE (ssRNA)
RNA: GGGAGUUCUACAGUCCGACGAUCAUUUAAUGUUAAUAGUGGUUUUCUAACUAAGAAAACACUAAAGUAAAAGAAUAAACUAGUGGGAAGGUUAAAGUUUAUCCUCUCACGCACGCGCACACACACACACACACACAUUCUCUCCAACAGAGGAUUGAGCAUCA
B5: chr2:61711136:61711137:-_ENSG00000082898_ENST00000401558|hu_hu|FALSE|FALSE (ssRNA)
RNA: GGGAGUUCUACAGUCCGACGAUCGACAUUCCUCAUAGUAUGUUUGAAAGCCCAAAUGAUGGAAUCCAAAACAAGUUUAAACUGUGUAGGUGGAAUAGCAAGGAAUGCUGGGAAACAAUGAGAAUUGACAGCCUGAAGUAGUAACAACAGAGGAUUGAGCAUCA
B6: chr12:39756943:39756944:-_ENSG00000139116_ENST00000544797|hu_mus|hu_hu_hu_mus_False|38_108 (ssRNA)
RNA: GGGAGUUCUACAGUCCGACGAUCGGUUUGGCUAUUACCCCCAAGGGAAUCCUGCAAGAGUCUUGUCAGCUUAGAGUCUCUGUAAGGGACAUGGGUGGCCCUCUUGCUCUUGUCCCCCAAGGCGCUGAUUACAUUCCCAAGAGCCAACAGAGGAUUGAGCAUCA
B7: chr14:89307221:89307222:+_ENSG00000165533_ENST00000346301|hu_mus|hu_hu_hu_mus_False|18_108 (ssRNA)
RNA: GGGAGUUCUACAGUCCGACGAUCUCCUGUCUGAUUAGUGCCAGGGAGCUUCAAAGAUGUGCCAGGGCGUGGGACCUGAGCAAUAGCAUUUUCAUCCAGGAUCAUUUCAGCAAUUCCUUCCUGAUCUACAUCAAUUUCAUCUAUCAACAGAGGAUUGAGCAUCA
B8: chr11:29608675:29608676:+_ENSMUSG00000020458_ENSMUST00000102843|mus_mus|FALSE|FALSE (ssRNA)
RNA: GGGAGUUCUACAGUCCGACGAUCCUCUGUAUCAGAAGGAAGUUUUUCCUCUGCUUCUUUCGUAAGUACUUUGGGUUUAACUAUGUUGCCCAUUUCUAUUUGAGAUUCCAAAGCAGAAACAUUUGGAAGCAAUAAGGGCACCUUCAACAGAGGAUUGAGCAUCA
B9: chr3:65185704:65185705:-_ENSMUSG00000027828_ENSMUST00000029414|mus_hu|FALSE|FALSE (ssRNA)
RNA: GGGAGUUCUACAGUCCGACGAUCAUUUUUUUCCUUUUAAUAAACGUCCUAGUACUCUGAGUUUCCCUUUCAAUUCAUUUAAUUUCAACAAUCUGUCAAAAAACAGCCAAUAAACAAAUACUGAAUUACAUUCUGCUGGGUUUUCAACAGAGGAUUGAGCAUCA
B10: chr2:148701126:148701127:-_ENSMUSG00000027447_ENSMUST00000028938|mus_mus|motif|central (ssRNA)
RNA: GGGAGUUCUACAGUCCGACGAUCCUAGGACAAAGGGAUAAAGCUCCAACAAGACUCUGAGUUGGUGCAGAACAGACGCUGCGGCUCCGUGCGACUUUUACCCAAAUGCGAGCGUUAGGGACCCGCCCGCCUCUCCUGGCUCCUCAACAGAGGAUUGAGCAUCA
B11: chr7:141445308:141445309:+_ENSG00000106028_ENST00000265304|hu_hu|hu_hu_hu_mus_False|38_38 (ssRNA)
RNA: GGGAGUUCUACAGUCCGACGAUCUAUGAUUGUUGUUGCUUGCCGCCUCACAUUGUUUUUAUCCAUGUACUCGCCAUAGUCCACUUUCCCUUCCACAUAAAUUCGAGCCCCCUUUUUCACAUACUGAUAUGCCACAUCUCUGAGCAACAGAGGAUUGAGCAUCA
B12: chr2:202488911:202488912:-_ENSG00000155755_ENST00000286196|hu_mus|hu_hu_hu_mus_False|88_98 (ssRNA)
RNA: GGGAGUUCUACAGUCCGACGAUCAUUGAAACAUUUUCAUAAUAUUGAGAGAUGUUUUCAGCAUUAUGUAACAAAAGCUCAAUUGUAAAUACAUGUAUCUUAUAAAAAUACACUUAAAAACACGAGUGGGGAGCGCAGGCGCCACAACAGAGGAUUGAGCAUCA
B13: chr1:39494564:39494565:+_ENSG00000168653_ENST00000372967|hu_hu|hu_hu_hu_mus_True|28_38 (ssRNA)
RNA: GGGAGUUCUACAGUCCGACGAUCAUGCAUUCGCCUCAUCGUUUUGUACCGAAGCAAGCACUCUUCGAAGUCAUCGAACUCUAUCUUGCACUCCUUUUCUGCCCGAGUAUAACCGAUCCCGUGUGCACACUCUAUCCACUCUUUCAACAGAGGAUUGAGCAUCA
B14: chr13:13598695:13598696:+_ENSMUSG00000005397_ENSMUST00000005532|mus_mus|motif|central (ssRNA)
RNA: GGGAGUUCUACAGUCCGACGAUCCACCAAACCCGUGUCAAACAGCACUCGGCGCUGGGUGCCAUCCAUCUUUGCAACUUCGGUUCGAUCCAACUGAGAGUCCGUCCAGAAGAUGGUUCGACCAAGAUGGUCAAGGGCAAUGCCCAACAGAGGAUUGAGCAUCA

The list shows a part of the results.

The target of this assay is T1, UNK ZnF1-3. The assay can be described thus: nsRBNS (natural sequence RNA bind-n-seq); RBNS binding buffer (assumed for nsRBNS): 25 mM Tris pH 7.5, 150 mM KCl, 3 mM MgCl2, 0.01% Triton X-100, 500 ug/ml BSA, 20 U/ml SUPERase-In, 4 C; UNK is unkempt and MSI1 is Musashi-1; names of the RNAs are library labels; protein concentration not given here; high values mean tight binding.
In the case of B1, the binding signal is 1.57 enrichment R. For the molecule B2, the binding signal stood at 0.936 enrichment R. For B3 the value was 1.94 enrichment R; for B4, 1.09 enrichment R. For B5 the value was 1.25 enrichment R. With B6, the binding signal was 0.723 enrichment R.

Turning to B7, the binding signal stood at 0.819 enrichment R. For B8 the value was 0.74 enrichment R; for B9, 1.07 enrichment R; for B10, 1.11 enrichment R. B11 registered a binding signal of 0.596 enrichment R. As for B12, the binding signal turned out to be 0.63 enrichment R.

B13 displayed a binding signal of 0.788 enrichment R. B14 had a binding signal of 0.925 enrichment R.
